To fix the notation:
B1: UniProt A0EPZ9; numbered along this chain (parent)
chain: MDWQKSLTLIVALTLSRGIGLKNDLPWKLKSDMMFFSRVTSGLLVTRSTGQMNVVLMGRKTWESLPAHSRPLKNRINVVISRQEVLDLGGGAYHARSLDDALALLSQIYDSTSKIQLNRVFVIGGGELCKAAMEHSRLNRIIATVIHNEVDCDVFFPIDFRSSQSCLPWRKQDHSVLEAWVGSKVPQGKINENGFIYEFEMWIRDI

The data set covers variants of B1. Description: selection coefficient against synonymous wild-type codons (log2 per generation); higher = faster growth than wild type. The conditions noted are these: with Saccharomyces cerevisiae carrying the variant on a plasmid. Here is the method: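 Pooled growth of yeast carrying single-residue variants of P. jirovecii dihydrofolate reductase (own DFR1 gene intact), two passages at 30 °C, three cultures, sequenced before and after. Codons with under 15 starting reads are left out; codons of one change are averaged.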

Data on 57 variants can be found in the supplement of paper PMC11125491.

± gives the standard deviation of the averaged measurements. Growth of baker's yeast expressing single-residue variants of Pneumocystis jirovecii dihydrofolate reductase in 8.8 or 44 µM methotrexate (about 75% and 90% inhibition of the wild type). Selection coefficient per generation; 0 = like wild type, above 0 = less sensitive, below 0 = more sensitive or loss of function. No active / inactive call per row; the paper calls resistant above 0.220 (8.8 µM) or 0.243 (44 µM) together with a significance test. At 44 µM about 15% of codons end with one read or none, so the lowest values are floors (replicate rank correlation 0.74; 0.94 at 8.8 µM).

Consider R161L, for which the “selection coefficient against synonymous wild-type codons (log2)” value (shortened to “selection coefficient … (log2)”) (methotrexate 8.8 µM) is -0.0268 ± 0.044 and the “selection coefficient … (log2)” value (methotrexate 44 µM) was -0.137 ± 0.12.
The matching figures for F155V: 0.24 ± 0.051 and 0.176 ± 0.052.
Turning to F155E, the “selection coefficient … (log2)” value (methotrexate 8.8 µM) turned out to be 0.46 ± 0.052 and the “selection coefficient … (log2)” value (methotrexate 44 µM) amounted to 0.49 ± 0.026.
The matching figures for F155K: 0.29 ± 0.036 and 0.242 ± 0.018.
Taken in the same sequence, the figures for K30W were 0.0253 ± 0.033 and 0.0479 ± 0.028.
As for G125L, the “selection coefficient … (log2)” value runs as follows: (methotrexate 8.8 µM) -0.836 ± 0.11; (methotrexate 44 µM) -0.426 ± 0.071.
As to G125R, the “selection coefficient … (log2)” value was -0.767 ± 0.14 (methotrexate 8.8 µM) and -0.357 ± 0.076 (methotrexate 44 µM).
The matching figures for G125Q: -0.766 ± 0.091 and -0.443 ± 0.14.
Taken in the same sequence, the figures for G125T were -0.774 ± 0.074 and -0.16 ± 0.42.
Taken in the same sequence, the figures for R204P were -0.0711 ± 0.079 and -0.145 ± 0.12.
As to R204M, the “selection coefficient … (log2)” value (methotrexate 8.8 µM) is -0.291 ± 0.043 and the “selection coefficient … (log2)” value (methotrexate 44 µM) was -0.261 ± 0.027.
R204F: the “selection coefficient … (log2)” value was -0.426 ± 0.13 (methotrexate 8.8 µM) and -0.475 ± 0.065 (methotrexate 44 µM).
For the variant R137F, the “selection coefficient … (log2)” value is -0.167 ± 0.043 (methotrexate 8.8 µM) and -0.191 ± 0.18 (methotrexate 44 µM).
Taken in the same sequence, the figures for G58F were -0.599 ± 0.099 and -0.351 ± 0.085.
The matching figures for A103W: -0.432 ± 0.08 and -0.173 ± 0.093.
The matching figures for A103H: 0.0066 ± 0.036 and 0.0688 ± 0.065.
With D24Q, the “selection coefficient … (log2)” value by setting is: (methotrexate 8.8 µM) 0.298 ± 0.054; (methotrexate 44 µM) 0.289 ± 0.1.
The matching figures for D24F: -0.139 ± 0.045 and -0.175 ± 0.16.
Taken in the same sequence, the figures for A179W were -0.316 ± 0.052 and -0.195 ± 0.14.
A179R: the “selection coefficient … (log2)” value (methotrexate 8.8 µM) was -0.0133 ± 0.022 and the “selection coefficient … (log2)” value (methotrexate 44 µM) is -0.123 ± 0.27.
The matching figures for A179C: -0.228 ± 0.098 and -0.234 ± 0.14.
Taken in the same sequence, the figures for A179F were -0.341 ± 0.024 and -0.408 ± 0.063.
Consider W202K, for which the “selection coefficient … (log2)” value reads like this: (methotrexate 8.8 µM) -0.606 ± 0.065; (methotrexate 44 µM) -0.328 ± 0.12.
The matching figures for S37T: -0.113 ± 0.046 and -0.07 ± 0.1.
The matching figures for S37R: -0.0862 ± 0.099 and -0.0238 ± 0.15.
For S37W, the “selection coefficient … (log2)” value is, setting by setting: (methotrexate 8.8 µM) -0.274 ± 0.033; (methotrexate 44 µM) -0.136 ± 0.073.
For the variant G182H, the “selection coefficient … (log2)” value was -0.235 ± 0.12 (methotrexate 8.8 µM) and -0.305 ± 0.044 (methotrexate 44 µM).
The matching figures for G182V: -0.369 ± 0.042 and -0.452 ± 0.089.
The matching figures for V55S: -0.512 ± 0.11 and -0.251 ± 0.11.
Taken in the same sequence, the figures for E127K were -0.147 ± 0.02 and -0.0567 ± 0.23.
Take G90M: the “selection coefficient … (log2)” value reads like this: (methotrexate 8.8 µM) -0.245 ± 0.072; (methotrexate 44 µM) -0.23 ± 0.14.
The matching figures for G90H: -0.0601 ± 0.012 and -0.0543 ± 0.053.
With S111A, the “selection coefficient … (log2)” value is, setting by setting: (methotrexate 8.8 µM) -0.0576 ± 0.021; (methotrexate 44 µM) 0.14 ± 0.084.
The matching figures for L15K: 0.145 ± 0.039 and 0.144 ± 0.099.
Taken in the same sequence, the figures for L15I were -0.0567 ± 0.026 and -0.0232 ± 0.041.
The matching figures for V120E: -0.777 ± 0.035 and -0.273 ± 0.047.
Take V120M: the “selection coefficient … (log2)” value (methotrexate 8.8 µM) was -0.168 ± 0.015 and the “selection coefficient … (log2)” value (methotrexate 44 µM) was -0.17 ± 0.14.
As to V120G, the “selection coefficient … (log2)” value by setting is: (methotrexate 8.8 µM) -0.531 ± 0.098; (methotrexate 44 µM) -0.0988 ± 0.34.
The matching figures for K28Y: -0.29 ± 0.048 and -0.105 ± 0.1.
The matching figures for K28A: 0.0264 ± 0.036 and 0.0548 ± 0.074.
Consider L56Q, for which the “selection coefficient … (log2)” value is -0.52 ± 0.032 (methotrexate 8.8 µM) and -0.23 ± 0.073 (methotrexate 44 µM).
The matching figures for L56V: -0.0375 ± 0.044 and -0.133 ± 0.18.
Taken in the same sequence, the figures for L56F were -0.127 ± 0.024 and -0.156 ± 0.091.
On to Q164E, for which the “selection coefficient … (log2)” value runs as follows: (methotrexate 8.8 µM) -0.0495 ± 0.066; (methotrexate 44 µM) -0.114 ± 0.083.
The matching figures for T40S: 0.308 ± 0.021 and 0.348 ± 0.039.
Turning to T40H, the “selection coefficient … (log2)” value is, setting by setting: (methotrexate 8.8 µM) -0.601 ± 0.062; (methotrexate 44 µM) -0.438 ± 0.038.
The matching figures for T40I: -0.513 ± 0.18 and -0.265 ± 0.092.
Taken in the same sequence, the figures for W169A were 0.00781 ± 0.38 and 0.121 ± 0.45.
Consider W169M, for which the “selection coefficient … (log2)” value was -0.00404 ± 0.056 (methotrexate 8.8 µM) and -0.126 ± 0.076 (methotrexate 44 µM).
L44R: the “selection coefficient … (log2)” value by setting is: (methotrexate 8.8 µM) 0.025 ± 0.034; (methotrexate 44 µM) 0.0377 ± 0.079.
The matching figures for L44D: 0.353 ± 0.041 and 0.32 ± 0.046.
The matching figures for V185T: -0.122 ± 0.11 and -0.172 ± 0.071.
As to V185I, the “selection coefficient … (log2)” value is -0.0931 ± 0.034 (methotrexate 8.8 µM) and -0.144 ± 0.044 (methotrexate 44 µM).
Taken in the same sequence, the figures for I108T were -0.391 ± 0.14 and -0.107 ± 0.13.
The matching figures for V45G: 0.123 ± 0.055 and 0.149 ± 0.053.
Taken in the same sequence, the figures for E178A were -0.118 ± 0.094 and -0.208 ± 0.096.
Consider T112I, for which the “selection coefficient … (log2)” value reads like this: (methotrexate 8.8 µM) -0.431 ± 0.27; (methotrexate 44 µM) -0.0952 ± 0.085.
